# Results reported in PMC4336329 (PLoS ONE, 2015).
# About 2,200 (0.71%) of roughly 310,000 compounds showed an effect of 50% or more. The effect is printed as a negative number. The list shows a part of the results.
# Target: human ether-à-go-go-related gene (hERG) potassium channel (human, UniProt Q12809)
# Assay: primary screen, population patch clamp on CHO cells stably expressing hERG
# Sequence of human ether-à-go-go-related gene (hERG) potassium channel (Q12809 whole entry, looked up): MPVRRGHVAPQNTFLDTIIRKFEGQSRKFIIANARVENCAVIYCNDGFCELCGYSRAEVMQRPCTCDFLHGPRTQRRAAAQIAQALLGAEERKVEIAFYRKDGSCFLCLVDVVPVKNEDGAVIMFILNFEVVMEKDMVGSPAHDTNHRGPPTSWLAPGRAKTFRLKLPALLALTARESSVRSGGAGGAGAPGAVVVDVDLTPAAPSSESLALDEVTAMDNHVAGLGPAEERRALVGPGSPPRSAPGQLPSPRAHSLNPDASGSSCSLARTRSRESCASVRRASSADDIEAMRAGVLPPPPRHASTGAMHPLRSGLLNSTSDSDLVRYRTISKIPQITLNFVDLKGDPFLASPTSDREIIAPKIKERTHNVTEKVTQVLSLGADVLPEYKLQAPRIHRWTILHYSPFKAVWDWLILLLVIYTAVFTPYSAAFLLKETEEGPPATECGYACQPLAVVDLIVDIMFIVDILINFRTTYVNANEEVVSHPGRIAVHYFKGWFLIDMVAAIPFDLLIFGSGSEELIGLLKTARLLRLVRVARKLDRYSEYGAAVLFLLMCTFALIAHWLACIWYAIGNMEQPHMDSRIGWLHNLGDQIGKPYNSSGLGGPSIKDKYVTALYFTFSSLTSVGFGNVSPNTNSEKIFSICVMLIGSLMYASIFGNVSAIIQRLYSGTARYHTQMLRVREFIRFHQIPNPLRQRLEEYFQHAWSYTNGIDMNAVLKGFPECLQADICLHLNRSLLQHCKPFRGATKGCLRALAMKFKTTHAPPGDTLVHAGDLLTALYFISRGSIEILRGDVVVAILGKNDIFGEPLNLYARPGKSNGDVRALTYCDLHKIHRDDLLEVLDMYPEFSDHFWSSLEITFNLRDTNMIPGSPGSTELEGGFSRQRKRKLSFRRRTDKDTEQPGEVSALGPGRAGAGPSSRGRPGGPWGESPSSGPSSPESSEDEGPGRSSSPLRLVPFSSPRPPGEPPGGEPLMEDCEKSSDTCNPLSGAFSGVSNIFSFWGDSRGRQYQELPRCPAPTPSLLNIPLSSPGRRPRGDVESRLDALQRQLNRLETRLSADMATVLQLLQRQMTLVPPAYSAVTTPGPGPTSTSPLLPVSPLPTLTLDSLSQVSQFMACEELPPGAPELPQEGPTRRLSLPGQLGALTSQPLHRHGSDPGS
row,SMILES,"hERG current change (%, negative = inhibition) at 1uM [%]"
1,CCOC(=O)/C=C/C(=O)Nc1ccc(Oc2ccccc2)cc1,10.2
2,CCCCOc1ccc(CN2CCN(CCO)CC2)cc1,7.93
3,CCn1c(P(C)(=O)[O-])nc2cc(NC(=O)c3ccccc3F)ccc21.[K+],20.6
4,O=C(NCc1ccccn1)c1ccco1,8.85
5,O=c1[nH]c(N2CCN(c3ccccc3)CC2)nc2c1CCC2,5.93
6,Cc1c(NC(=O)C(C)N2C(=O)c3ccccc3C2=O)c(=O)n(-c2ccccc2)n1C (stereo not shown),12.5
7,O=C(O)c1cc(Cl)ccc1NC(=O)C1CCCO1 (stereo not shown),11
8,COc1cc(S(=O)(=O)N2CCN(c3ccccc3)CC2)ccc1F,8.18
9,COc1ccc(Cc2nnc(NC(=O)c3cccc([N+](=O)[O-])c3C)s2)cc1,-3.91
10,Cn1nc(C(=O)N2CCN(S(=O)(=O)/C=C/c3ccccc3)CC2)c2ccccc2c1=O,-9.45
11,CCc1ccc(OCCCCN(C)Cc2ccccc2)cc1.O=C(O)C(=O)O,13.4
12,Cc1ccc(S(=O)(=O)CCC(=O)OC(C)C(=O)NC2CCCCC2C)cc1 (stereo not shown),11.1
13,O=C(NCc1cccs1)c1ccccc1,7.23
14,O=C1C(Cl)=C(N2CCOCC2)C(=O)N1c1cccc(Cl)c1,15.5
15,CCN(CCCNC(=O)C1CCN(S(=O)(=O)c2cccc3nonc23)CC1)Cc1ccccc1,-24.1
16,COc1cc(C(=O)NCCOc2ccc(C)c(C)c2)cc(OC)c1OC,9.27
17,N#Cc1c(NC(=O)COC(=O)c2ccc(F)cc2)sc2c1CCC2,-0.727
18,CCCC(=O)C1=C(N2CCCC2)CC(C)(C)C(C(=O)OC)C1=O (stereo not shown),10.1
19,CCCCCn1c(=O)[nH]c2cc(C(=O)NCCCN3CCCCC3)ccc2c1=O,-4.05
20,Nc1nc(SCc2ccccc2Cl)[nH]c(=O)c1-c1ccccc1,13.8
21,C/C(=N\Nc1ccc(S(N)(=O)=O)cc1[N+](=O)[O-])c1cccs1,16
22,c1ccc(CN2CCOCCOCCOCCOCCOCCOCC2)cc1,-12.4
23,O=[N+]([O-])c1ccc(N2CCN(c3cccc(Cl)c3)CC2)nc1,10.6
24,Cc1csc(C(C)NC(=O)c2ccc(OC3CCN(CCc4ccccc4)CC3)cc2)n1 (stereo not shown),-22
25,Cc1cc(-c2ccccc2)[nH]c(=O)c1C#N,13.4
26,O=C(O)CCc1nnc(SCC(=O)Nc2ccc(Cl)c(C(F)(F)F)c2)[nH]c1=O,13.7
27,COc1ccc(NC(C)=[N+](C)CCNS(=O)(=O)c2ccc(Cl)cc2)cc1Cl.[I-],-35.5
28,Cc1cc(NC(=O)c2sc3ccccc3c2O)no1,15.5

row,SMILES,"hERG current change (%, negative = inhibition) at 1uM [%]"
1,CCCN(CCC)CCCNC(=S)Nc1ccc2nc(N3CCN(C)CC3)cc(C)c2c1,4.92
2,COc1ccc(C(=O)n2nc(-c3ccc(Cl)cc3)nc2N)cc1OC,8.83
3,COc1cc(NC(=O)c2noc(C)c2[N+](=O)[O-])c(OC)cc1Cl,13.9
4,O=c1c2ccccc2oc2ccc(-c3ccc4[nH]ccc4c3)cc12,4.01
5,CC(=O)Oc1ccc(CC(C(=O)O)N2C(=O)c3ccccc3C2=O)cc1 (stereo not shown),17.2
6,Cn1c(C(=O)Nc2ccc(Cl)cc2)cc2cc(Cl)ccc21,10.1
7,Cc1cc(C)c2sc(C)[n+](CCCS(=O)(=O)[O-])c2c1,4.6
8,O=c1[nH]c(=O)n(-c2cccc3ccccc23)c(O)c1/C=N/N1CCCCCC1,13.5
9,Cc1cccc(OCC(=O)Nc2ccc(N3CCCC3)cc2)c1C,16.6
10,COC(=O)/C=C1\N/C(=N/c2nc(C)c3cc(OC)ccc3n2)NC1=O,12.8
11,O=C(Nc1ccccc1)C1=C[C@@H](C2CCCCC2)C[C@@H](OCc2ccc(CO)cc2)O1,12.6
12,Cc1ccc(CSCC(=O)N(C)CC(=O)Nc2ccc(Cl)c(Cl)c2)cc1,9.05
13,COc1ccccc1C(=O)NCCCNc1ccc([N+](=O)[O-])cc1,-15.1
14,CC1C(=O)N2CCCc3cc(S(=O)(=O)N4CCC(C(N)=O)CC4)cc1c32 (stereo not shown),17.4
15,O=C(NCC1CCCO1)c1ccccc1NC(=O)c1cccc2ccccc12 (stereo not shown),9.99
16,CC(=O)Nc1nnc(SCC(=O)c2ccc3c(c2)Cc2ccccc2-3)s1,14.9
17,CCN1C(=O)[C@H]2[C@@H](c3ccc(-c4ccc(OC)cc4)cc3)N[C@@](CC(C)C)(C(=O)OC)[C@H]2C1=O.O=C(O)C(F)(F)F,2.61
18,CCOC(=O)c1c(NC(=O)CCS(=O)(=O)c2ccccc2)sc2c1CCN(C(C)C)C2.Cl,-64.6
19,CC(C)C12CN(C(=O)c3ccccc3[N+](=O)[O-])CC(C(C)C)(CN(C(=O)c3ccccc3[N+](=O)[O-])C1)C2=O,14.2
20,COC(=O)c1c(NC(=O)C2CCC2)sc(C(=O)N(C)C)c1C,22.5
21,O=c1[nH]c2ccccc2c(O)c1-[n+]1ccccc1.[Cl-],14.9
22,COc1ccc(CC(=O)NC(C)c2nnc(SCc3nc4ccccc4c(=O)[nH]3)n2C)cc1 (stereo not shown),0.306
23,COc1ccc(Cl)cc1C(=O)Nc1ccc(NC(C)=O)cc1,19.9
24,CCN1CCN(CCCNC(=O)c2ccc(CS(=O)c3ccc(Br)cc3)o2)CC1 (stereo not shown),23.1
25,CCOc1ccccc1/C=N/Nc1ccc(Cl)nn1,12.2
26,CCOC(=O)c1nnn(-c2nonc2N)c1-c1cccc2ccccc12,14.1
27,COc1ccc(Cc2nc3ccccc3n2C)cc1.Cl,9.27
